# Experimental data: the supplement of paper PMC8728848
# The other results are listed elsewhere or left out.
# Key:
# Assay in all cases: glycan array binding signal (z-score within array); higher = stronger binding
# Details in all cases: glycan notation: IUPAC condensed, linker removed; mutation: R85A
# Neu5Ac(a2-8)Neu5Ac = target: Neu5Ac(a2-8)Neu5Ac
# Method in brief: (§1)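 From the Consortium for Functional Glycomics database, 3228 arrays were curated, keeping only those whose protein sequence was available. Binding is given as a within-array Z-score averaged across arrays sharing a protein sequence and across linkers. Negative Z-scores can be read as non-binding.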
# [1] = target: Neu5Ac(a2-8)Neu5Ac(a2-3)Gal(b1-4)Glc
# Method in brief: as §1
# [2] = target: Neu5Ac(a2-8)Neu5Ac(a2-3)[GalNAc(b1-4)]Gal(b1-4)Glc
# Method in brief: as §1
# [3] = target: Neu5Ac(a2-8)Neu5Ac(a2-8)Neu5Ac
# Method in brief: as §1
# [4] = target: Neu5Ac(a2-8)Neu5Ac(a2-8)Neu5Ac(a2-3)Gal(b1-4)Glc
# Method in brief: as §1
# [5] = target: Neu5Ac(a2-8)Neu5Ac(a2-8)Neu5Ac(a2-3)[GalNAc(b1-4)]Gal(b1-4)Glc
# Method in brief: as §1
# [6] = target: Neu5Ac(a2-8)Neu5Ac(a2-8)Neu5Ac(a2-8)Neu5Ac(a2-3)[GalNAc(b1-4)]Gal(b1-4)Glc
# Method in brief: as §1
# [7] = target: Neu5Ac(b2-6)Gal(b1-4)GlcNAc
# Method in brief: as §1
# Neu5Ac(b2-6)GalNAc = target: Neu5Ac(b2-6)GalNAc
# Method in brief: as §1
# [8] = target: Neu5Ac9Ac(a2-3)Gal(b1-3)GlcNAc
# Method in brief: as §1
# [9] = target: Neu5Ac9Ac(a2-3)Gal(b1-4)GlcNAc
# Method in brief: as §1
# [10] = target: Neu5Ac9Ac(a2-6)Gal(b1-4)GlcNAc
# Method in brief: as §1
# [11] = target: Neu5Gc(a2-3)Gal(b1-3)GlcNAc
# Method in brief: as §1
# [12] = target: Neu5Gc(a2-3)Gal(b1-3)[Fuc(a1-4)]GlcNAc
# Method in brief: as §1
# Neu5Gc(a2-3)Gal(b1-4)Glc = target: Neu5Gc(a2-3)Gal(b1-4)Glc
# Method in brief: as §1
# [13] = target: Neu5Gc(a2-3)Gal(b1-4)GlcNAc
# Method in brief: as §1
# [14] = target: Neu5Gc(a2-3)Gal(b1-4)[Fuc(a1-3)]GlcNAc
# Method in brief: as §1
# [15] = target: Neu5Gc(a2-6)Gal(b1-4)GlcNAc
# Method in brief: as §1
# Neu5Gc(a2-6)GalNAc = target: Neu5Gc(a2-6)GalNAc
# Method in brief: as §1
# [16] = target: Neu5Gc(b2-6)Gal(b1-4)GlcNAc
# Method in brief: as §1
binder,measurement,setting,value
"rAAL (Agrocybe aegerita), Q6WY08 (protein) MQGVNIYNISAGTSVDLAAPVTTGDIVTFFSSALNLNAGAGNPNNTTLNLFAENGAYLLHIAFRLQENVIIFNSRQPDGPWLVEQAVSDVANQFAGIDGKAMVTVFDHGDKYQVVINEKTVIQYTKQISGLTLSLSYNATEETSIFSTVVEAVTYTGLALEHHHHHH",glycan array binding signal (z-score),Neu5Ac(a2-8)Neu5Ac,-0.125
same,glycan array binding signal (z-score),[1],0.307
same,glycan array binding signal (z-score),[2],-0.136
same,glycan array binding signal (z-score),[3],-0.139
same,glycan array binding signal (z-score),[4],-0.084
same,glycan array binding signal (z-score),[5],-0.128
same,glycan array binding signal (z-score),[6],-0.125
same,glycan array binding signal (z-score),[7],-0.123
same,glycan array binding signal (z-score),Neu5Ac(b2-6)GalNAc,-0.13
same,glycan array binding signal (z-score),[8],-0.149
same,glycan array binding signal (z-score),[9],-0.129
same,glycan array binding signal (z-score),[10],-0.118
same,glycan array binding signal (z-score),[11],-0.119
same,glycan array binding signal (z-score),[12],-0.139
same,glycan array binding signal (z-score),Neu5Gc(a2-3)Gal(b1-4)Glc,-0.144
same,glycan array binding signal (z-score),[13],-0.13
same,glycan array binding signal (z-score),[14],-0.128
same,glycan array binding signal (z-score),[15],-0.132
same,glycan array binding signal (z-score),Neu5Gc(a2-6)GalNAc,-0.135
same,glycan array binding signal (z-score),[16],-0.106
